# Test results published in the supplement of paper PMC8728848.
# This is one part of the list.
# Key:
# Assay in all cases: glycan array binding signal (z-score within array); higher = stronger binding
# Settings in all cases: glycan notation: IUPAC condensed, linker removed
# Fuc(a1-2)Gal = target: Fuc(a1-2)Gal
# Method in brief: (§1)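 Columns mapping to the same glycan were averaged after glycan names were converted to IUPAC-condensed notation. The data come from 3228 arrays in the Consortium for Functional Glycomics database, limited to those with an available protein sequence. Binding is reported as a within-array Z-score averaged across arrays of one protein sequence and across linkers.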
# Fuc(a1-2)Gal(b1-3)GalNAc = target: Fuc(a1-2)Gal(b1-3)GalNAc
# Method in brief: as §1
# [1] = target: Fuc(a1-2)Gal(b1-3)GalNAc(a1-3)[Fuc(a1-2)]Gal(b1-4)Glc
# Method in brief: as §1
# [2] = target: Fuc(a1-2)Gal(b1-3)GalNAc(a1-3)[Fuc(a1-2)]Gal(b1-4)GlcNAc
# Method in brief: as §1
# [3] = target: Fuc(a1-2)Gal(b1-3)GalNAc(b1-3)Gal
# Method in brief: as §1
# [4] = target: Fuc(a1-2)Gal(b1-3)GalNAc(b1-3)Gal(a1-4)Gal(b1-4)Glc
# Method in brief: as §1
# [5] = target: Fuc(a1-2)Gal(b1-3)GalNAc(b1-4)[Neu5Ac(a2-3)]Gal(b1-4)Glc
# Method in brief: as §1
# Fuc(a1-2)Gal(b1-3)GlcNAc = target: Fuc(a1-2)Gal(b1-3)GlcNAc
# Method in brief: as §1
# [6] = target: Fuc(a1-2)Gal(b1-3)GlcNAc(b1-2)Man(a1-3)[Fuc(a1-2)Gal(b1-3)GlcNAc(b1-2)Man(a1-6)]Man(b1-4)GlcNAc(b1-4)GlcNAc
# Method in brief: as §1
# [7] = target: Fuc(a1-2)Gal(b1-3)GlcNAc(b1-2)Man(a1-3)[Fuc(a1-2)Gal(b1-3)GlcNAc(b1-2)Man(a1-6)]Man(b1-4)GlcNAc(b1-4)[Fuc(a1-6)]GlcNAc
# Method in brief: as §1
# [8] = target: Fuc(a1-2)Gal(b1-3)GlcNAc(b1-3)Gal(b1-4)Glc
# Method in brief: as §1
# [9] = target: Fuc(a1-2)Gal(b1-3)GlcNAc(b1-3)GalNAc
# Method in brief: as §1
# [10] = target: Fuc(a1-2)Gal(b1-3)GlcNAc(b1-3)[Fuc(a1-2)Gal(b1-3)GlcNAc(b1-6)]GalNAc
# Method in brief: as §1
# [11] = target: Fuc(a1-2)Gal(b1-3)GlcNAc(b1-3)[Fuc(a1-3)[Gal(b1-4)]GlcNAc(b1-6)]Gal(b1-4)Glc
# Method in brief: as §1
# [12] = target: Fuc(a1-2)Gal(b1-3)GlcNAc(b1-3)[Gal(b1-4)GlcNAc(b1-6)]Gal(b1-4)Glc
# Method in brief: as §1
# [13] = target: Fuc(a1-2)Gal(b1-3)GlcNAc(b1-3)[Neu5Ac(a2-6)Gal(b1-4)GlcNAc(b1-6)]Gal(b1-4)Glc
# Method in brief: as §1
# [14] = target: Fuc(a1-2)Gal(b1-3)GlcNAc6S
# Method in brief: as §1
# [15] = target: Fuc(a1-2)Gal(b1-3)[Fuc(a1-4)]GlcNAc
# Method in brief: as §1
# [16] = target: Fuc(a1-2)Gal(b1-3)[Fuc(a1-4)]GlcNAc(b1-2)Man(a1-3)[Fuc(a1-2)Gal(b1-3)[Fuc(a1-4)]GlcNAc(b1-2)Man(a1-6)]Man(b1-4)GlcNAc(b1-4)GlcNAc
# Method in brief: as §1
# [17] = target: Fuc(a1-2)Gal(b1-3)[Fuc(a1-4)]GlcNAc(b1-2)Man(a1-6)[Fuc(a1-2)Gal(b1-3)[Fuc(a1-4)]GlcNAc(b1-2)Man(a1-3)]Man(b1-4)GlcNAc(b1-4)[Fuc(a1-6)]GlcNAc
# Method in brief: as §1
# [18] = target: Fuc(a1-2)Gal(b1-3)[Fuc(a1-4)]GlcNAc(b1-3)[Fuc(a1-3)[Gal(b1-4)]GlcNAc(b1-6)]Gal(b1-4)Glc
# Method in brief: as §1
# [19] = target: Fuc(a1-2)Gal(b1-3)[Fuc(a1-4)]GlcNAc(b1-3)[Gal(b1-4)GlcNAc(b1-6)]Gal(b1-4)Glc
# Method in brief: as §1
# Fuc(a1-2)Gal(b1-4)Glc = target: Fuc(a1-2)Gal(b1-4)Glc
# Method in brief: as §1
# Fuc(a1-2)Gal(b1-4)Glc6S = target: Fuc(a1-2)Gal(b1-4)Glc6S
# Method in brief: as §1
# Fuc(a1-2)Gal(b1-4)GlcNAc = target: Fuc(a1-2)Gal(b1-4)GlcNAc
# Method in brief: as §1
# [20] = target: Fuc(a1-2)Gal(b1-4)GlcNAc(b1-2)Man
# Method in brief: as §1
# [21] = target: Fuc(a1-2)Gal(b1-4)GlcNAc(b1-2)Man(a1-3)[Fuc(a1-2)Gal(b1-4)GlcNAc(b1-2)Man(a1-6)]Man(b1-4)GlcNAc(b1-4)GlcNAc
# Method in brief: as §1
# [22] = target: Fuc(a1-2)Gal(b1-4)GlcNAc(b1-2)Man(a1-3)[Fuc(a1-2)Gal(b1-4)GlcNAc(b1-2)Man(a1-6)]Man(b1-4)GlcNAc(b1-4)[Fuc(a1-6)]GlcNAc
# Method in brief: as §1
# [23] = target: Fuc(a1-2)Gal(b1-4)GlcNAc(b1-2)[Fuc(a1-2)Gal(b1-4)GlcNAc(b1-4)]Man(a1-3)[Fuc(a1-2)Gal(b1-4)GlcNAc(b1-2)Man(a1-6)]Man(b1-4)GlcNAc(b1-4)GlcNAc
# Method in brief: as §1
# [24] = target: Fuc(a1-2)Gal(b1-4)GlcNAc(b1-3)Gal(b1-4)GlcNAc
# Method in brief: as §1
# [25] = target: Fuc(a1-2)Gal(b1-4)GlcNAc(b1-3)Gal(b1-4)GlcNAc(b1-3)Gal(b1-4)GlcNAc
# Method in brief: as §1
# [26] = target: Fuc(a1-2)Gal(b1-4)GlcNAc(b1-3)GalNAc
# Method in brief: as §1
# [27] = target: Fuc(a1-2)Gal(b1-4)GlcNAc(b1-3)[Fuc(a1-2)Gal(b1-4)GlcNAc(b1-6)]GalNAc
# Method in brief: as §1
# [28] = target: Fuc(a1-2)Gal(b1-4)GlcNAc(b1-6)GalNAc
# Method in brief: as §1
# [29] = target: Fuc(a1-2)Gal(b1-4)GlcNAc6S
# Method in brief: as §1
# [30] = target: Fuc(a1-2)Gal(b1-4)[Fuc(a1-3)]GlcNAc
# Method in brief: as §1
# [31] = target: Fuc(a1-2)Gal(b1-4)[Fuc(a1-3)]GlcNAc(b1-2)Man(a1-3)[Fuc(a1-2)Gal(b1-4)[Fuc(a1-3)]GlcNAc(b1-2)Man(a1-6)]Man(b1-4)GlcNAc(b1-4)GlcNAc
# Method in brief: as §1
binder,measurement,setting,value
SalT (Orysata sativa) (protein) MTLVKIGLWGGNGGSAQDISVPPKKLLGVTIYSSDAIRSIAFNYIGVDGQEYAIGPWGGGEGTSTEIKLGSSEHIKEISGTHGPVYDLADIVTYLKIVTSANNTYEAGVPNGKEFSIPLQDSGHVVGFFGRSGTLIDAIGIYVHPILEQKLISEEDLNSAVDHHHHHH,glycan array binding signal (z-score),Fuc(a1-2)Gal,-0.311
same,glycan array binding signal (z-score),Fuc(a1-2)Gal(b1-3)GalNAc,-0.283
same,glycan array binding signal (z-score),[1],-0.306
same,glycan array binding signal (z-score),[2],-0.31
same,glycan array binding signal (z-score),[3],-0.309
same,glycan array binding signal (z-score),[4],-0.31
same,glycan array binding signal (z-score),[5],-0.308
same,glycan array binding signal (z-score),Fuc(a1-2)Gal(b1-3)GlcNAc,-0.309
same,glycan array binding signal (z-score),[6],0.438
same,glycan array binding signal (z-score),[7],-0.198
same,glycan array binding signal (z-score),[8],-0.31
same,glycan array binding signal (z-score),[9],-0.309
same,glycan array binding signal (z-score),[10],-0.301
same,glycan array binding signal (z-score),[11],-0.308
same,glycan array binding signal (z-score),[12],-0.311
same,glycan array binding signal (z-score),[13],-0.309
same,glycan array binding signal (z-score),[14],-0.303
same,glycan array binding signal (z-score),[15],-0.304
same,glycan array binding signal (z-score),[16],-0.263
same,glycan array binding signal (z-score),[17],-0.284
same,glycan array binding signal (z-score),[18],-0.307
same,glycan array binding signal (z-score),[19],-0.294
same,glycan array binding signal (z-score),Fuc(a1-2)Gal(b1-4)Glc,-0.306
same,glycan array binding signal (z-score),Fuc(a1-2)Gal(b1-4)Glc6S,-0.293
same,glycan array binding signal (z-score),Fuc(a1-2)Gal(b1-4)GlcNAc,-0.305
same,glycan array binding signal (z-score),[20],-0.309
same,glycan array binding signal (z-score),[21],2.62
same,glycan array binding signal (z-score),[22],0.28
same,glycan array binding signal (z-score),[23],-0.246
same,glycan array binding signal (z-score),[24],-0.31
same,glycan array binding signal (z-score),[25],-0.305
same,glycan array binding signal (z-score),[26],-0.307
same,glycan array binding signal (z-score),[27],-0.301
same,glycan array binding signal (z-score),[28],-0.303
same,glycan array binding signal (z-score),[29],-0.308
same,glycan array binding signal (z-score),[30],-0.308
same,glycan array binding signal (z-score),[31],-0.18
